The values that follow come from the BET-seq Pho4 binding data (Le et al. 2018).

Some of the results follow. These are noisy estimates, calculated here from bound and input reads.

The target of this experiment is T1, Pho4 (S. cerevisiae) (UniProt P07270).
T1 sequence: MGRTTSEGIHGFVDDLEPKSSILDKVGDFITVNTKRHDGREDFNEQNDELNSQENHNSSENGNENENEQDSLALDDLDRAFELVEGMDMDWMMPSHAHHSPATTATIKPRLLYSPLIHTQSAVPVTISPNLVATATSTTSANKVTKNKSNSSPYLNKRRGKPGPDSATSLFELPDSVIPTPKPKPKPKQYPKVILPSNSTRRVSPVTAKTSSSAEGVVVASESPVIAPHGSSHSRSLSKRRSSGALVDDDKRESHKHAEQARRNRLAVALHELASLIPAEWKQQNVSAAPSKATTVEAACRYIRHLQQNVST
Description: relative binding free energy (BET-seq); higher = weaker binding. The note with it: reference: library average.
With ATTTACACGTGTGAAT, the “relative binding free energy” value is 0.29 kcal/mol.
The value for TGACGCACGTGGCGTT was -0.1 kcal/mol; that for TCAGGCACGTGGTTAA was -0.22 kcal/mol.
The value for TTGCACACGTGATGTT was 0.23 kcal/mol; that for GAATGCACGTGGGTAT was -0.07 kcal/mol; that for AGAGGCACGTGGTTAT was -0.07 kcal/mol.
The value for AATACCACGTGGTTGT was 0.05 kcal/mol; that for TTGGACACGTGGTGCT was -0.01 kcal/mol; that for GGCGACACGTGGGAGG was 0.09 kcal/mol.
Consider ACTGACACGTGGTGGG, for which the “relative binding free energy” value was -0.13 kcal/mol.
The value for ACCGGCACGTGGTGGA was -0.08 kcal/mol; that for AGTCGCACGTGGTTGA was -0.2 kcal/mol; that for GTGGCCACGTGGCCTG was -0.1 kcal/mol.
Turning to GTTTACACGTGGGAGG, the “relative binding free energy” value worked out at 0.09 kcal/mol.
The figure for TGTCACACGTGTATTA is 0.11 kcal/mol; for TTGGTCACGTGTCCGA it is 0.14 kcal/mol; for GGAGGCACGTGACAGG it is 0 kcal/mol.
The figure for TTATGCACGTGCGGTT is -0.07 kcal/mol.
The value for AGTGTCACGTGTCGTT was 0.17 kcal/mol; that for GAGTACACGTGTGTAT was 0.16 kcal/mol.
Consider AGTATCACGTGGCTTG, for which the “relative binding free energy” value was found to be 0.07 kcal/mol.
The value for TGTCGCACGTGTAGAG was -0.07 kcal/mol.
The value for TTGTACACGTGACAGG was 0.02 kcal/mol.
With TGATACACGTGGAAGT, the “relative binding free energy” value came out at 0.22 kcal/mol.
The value for TGTTGCACGTGAGCGG was -0.01 kcal/mol; that for ATCGACACGTGATTGG was 0.28 kcal/mol; that for AGTGACACGTGAGTTA was 0.2 kcal/mol.
The value for TTGGCCACGTGTGGTG was 0.03 kcal/mol; that for TATCGCACGTGAGTGT was 0.05 kcal/mol.
Turning to CCGGGCACGTGGGGCA, the “relative binding free energy” value was -0.32 kcal/mol.
The value for AGGAGCACGTGGATTA was 0.03 kcal/mol.
The figure for TAATTCACGTGTATTA is 0.09 kcal/mol; for GATTTCACGTGAGTTC it is 0.47 kcal/mol.
AGTATCACGTGATCTG: the “relative binding free energy” value was determined as 0.23 kcal/mol.
The figure for TGGTCCACGTGTGAGT is 0.07 kcal/mol.
The figure for GGTATCACGTGCTTAT is 0.26 kcal/mol.
The figure for TGAAGCACGTGTGGGC is -0.02 kcal/mol; for AGTTACACGTGGCTTT it is 0.13 kcal/mol.
For the sequence TGGCTCACGTGAAGGG, the “relative binding free energy” value is 0.17 kcal/mol.
Take GTTTTCACGTGCTGGC: the “relative binding free energy” value was found to be 0.41 kcal/mol.
The figure for GAGCGCACGTGTTGGA is 0.09 kcal/mol; for GGTGCCACGTGTTGTA it is -0.04 kcal/mol; for TGTGTCACGTGTGGGC it is 0.09 kcal/mol.
On to TAGCGCACGTGCGTTG, for which the “relative binding free energy” value was -0.22 kcal/mol.
Take AGAAGCACGTGGGTTT: the “relative binding free energy” value was -0.18 kcal/mol.
AAGGTCACGTGGTGAG: the “relative binding free energy” value worked out at 0.14 kcal/mol.
Turning to ACTTTCACGTGGGGTG, the “relative binding free energy” value was 0.11 kcal/mol.
The figure for GTCGGCACGTGATGTT is 0.1 kcal/mol; for GGGGTCACGTGCGCGC it is -0.02 kcal/mol.
The value for TGATGCACGTGCAATG was 0.15 kcal/mol.
The figure for GAGAGCACGTGGGTGG is -0.08 kcal/mol.
ATCAACACGTGATGGT: the “relative binding free energy” value came to 0.18 kcal/mol.
For TAAGACACGTGGGGGC, the “relative binding free energy” value is -0.07 kcal/mol.
The value for GGTGGCACGTGGCTTC was -0.19 kcal/mol; that for GGTGTCACGTGATGGG was 0.26 kcal/mol; that for GGAGTCACGTGGATAG was 0.08 kcal/mol.
The figure for CTTGGCACGTGGTAAA is -0.12 kcal/mol.
The figure for ACTGGCACGTGATGTA is -0.04 kcal/mol.
With GTGGACACGTGGTCGG, the “relative binding free energy” value was -0.01 kcal/mol.
Consider ATGTTCACGTGCGTAT, for which the “relative binding free energy” value worked out at 0.29 kcal/mol.
The figure for TGTCACACGTGAGTAT is 0.27 kcal/mol.
In the case of TGGGTCACGTGAGACG, the “relative binding free energy” value came out at 0.33 kcal/mol.
The value for ATTGGCACGTGGTGAT was -0.1 kcal/mol; that for TTATGCACGTGTTGTG was -0.03 kcal/mol.
For the sequence TTTAGCACGTGGGGAT, the “relative binding free energy” value is -0.15 kcal/mol.
Regarding TGACTCACGTGGTAGG, the “relative binding free energy” value was 0.09 kcal/mol.
The figure for ATTTACACGTGATTCT is 0.25 kcal/mol.
Take TTAATCACGTGGATAT: the “relative binding free energy” value is 0.12 kcal/mol.
Regarding GGGGGCACGTGCGGAG, the “relative binding free energy” value was -0.21 kcal/mol.
The figure for GAGAGCACGTGTCTGG is -0.05 kcal/mol; for AGTAACACGTGTTAGA it is 0.04 kcal/mol.
The value for GAGGACACGTGGTTGG was 0.1 kcal/mol; that for GGTTTCACGTGAGATT was 0.38 kcal/mol; that for TTTTGCACGTGGGTCA was -0.12 kcal/mol.
As to GTGTGCACGTGGTGAC, the “relative binding free energy” value was -0.03 kcal/mol.
Turning to GTGGCCACGTGAATTG, the “relative binding free energy” value stood at 0.25 kcal/mol.
Consider GTTAACACGTGTTTCG, for which the “relative binding free energy” value was 0.09 kcal/mol.
For the sequence GATGTCACGTGCTGGA, the “relative binding free energy” value came to 0.2 kcal/mol.
The figure for GAGTTCACGTGGGCTG is 0.16 kcal/mol; for GGATACACGTGATGGT it is 0.29 kcal/mol; for AGGGTCACGTGGTTAA it is -0.04 kcal/mol.
The figure for GGAGTCACGTGGCGTG is 0.07 kcal/mol.
The value for ATGCGCACGTGTTGTT was -0.12 kcal/mol; that for GACGGCACGTGGGTGG was -0.07 kcal/mol; that for GTAAGCACGTGTGTCG was -0.1 kcal/mol.
For the sequence ATGTTCACGTGGCGAT, the “relative binding free energy” value is 0.3 kcal/mol.
The value for GGTGACACGTGGAGCT was 0.05 kcal/mol; that for TTTCGCACGTGTCTTT was 0.05 kcal/mol.
The figure for GGTAACACGTGATATG is 0.03 kcal/mol; for AGCGTCACGTGGCGGA it is -0.09 kcal/mol.
The value for CGGGTCACGTGTGGCG was 0.12 kcal/mol.
With ATGTCCACGTGTGTTA, the “relative binding free energy” value is 0.13 kcal/mol.
The value for GGGGCCACGTGCTGTG was -0.11 kcal/mol; that for GTGGGCACGTGCCGTT was -0.14 kcal/mol.
The figure for GTGTACACGTGCAGTT is -0.06 kcal/mol.
The figure for GTGGCCACGTGCATGG is -0.11 kcal/mol; for GGCGGCACGTGGGAAG it is -0.03 kcal/mol.
Regarding TCAGGCACGTGGTTTA, the “relative binding free energy” value was -0.19 kcal/mol.
The figure for ATAGGCACGTGTGTGC is -0.16 kcal/mol; for GTTGGCACGTGGAAAA it is 0.14 kcal/mol; for TGGAACACGTGTGCGG it is 0.01 kcal/mol.
On to GTAGACACGTGAGTTG, for which the “relative binding free energy” value was 0.27 kcal/mol.
The value for TGATTCACGTGCTGGA was 0.22 kcal/mol; that for AAAGTCACGTGCTGTG was -0.01 kcal/mol.
Turning to TATCGCACGTGGAGTT, the “relative binding free energy” value is -0.01 kcal/mol.
The figure for ACGGTCACGTGATATG is 0.14 kcal/mol; for CTTGGCACGTGTGGGA it is -0.03 kcal/mol; for CAGGTCACGTGTGAAT it is 0.27 kcal/mol.
The value for TTGCACACGTGTGTGT was 0.14 kcal/mol; that for TTTGTCACGTGTCTTT was -0.04 kcal/mol.
The figure for AAAGGCACGTGGGTGT is -0.23 kcal/mol; for AGGCGCACGTGTTGTT it is -0.03 kcal/mol.
Turning to TTCGCCACGTGTGGAG, the “relative binding free energy” value stood at 0.09 kcal/mol.
Turning to TGGAGCACGTGCGGTG, the “relative binding free energy” value was -0.09 kcal/mol.
TGTGCCACGTGTGTGC: the “relative binding free energy” value is -0.13 kcal/mol.
